Assay results published in PubChem BioAssay AID652104 (National Center for Advancing Translational Sciences (NCATS), 2013).
About 7,200 (1.8%) of roughly 410,000 compounds were called active. Inconclusive results, whose numbers are uncertain, are shown with a selection of clear calls. Calls come from the whole dose curve; as a rule, active = well fitted activation curve with a large enough effect; inconclusive = small, poorly fitted or top-dose-only effect, or another doubt; inactive = no such curve, though single readings can be large or run the other way. Potencies of inconclusive entries are left out as doubtful fits.

Assay: qHTS of TDP-43 Inhibitors; note: nearly all actives have a fitted effect of over 50% in size; for growth rescue (activation): % of control where 0% means no effect
Details: TDP-43 expressing yeast growth rescue, BacTiter-Glo, 24 h; growth rescue (activation): at 46.1 µM (top of the series) unless noted
Summary of the method: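 Cell-based yeast growth screen: TDP-43 expression induced in galactose, inoculum OD600=0.02 after raffinose pregrowth to mid-log. Read-out BacTiter-Glo luminescence at 24 hr, 30 deg C; inhibition of toxicity seen as signal increase.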
Potency is the fitted concentration of half-maximal effect; tags give direction and shape of the fitted curve.

Compound	growth rescue (activation)	Potency
CN(C)c1ccc2c(c1[N+](=O)[O-])Cc1ccccc1-2	inactive: 20.9%	
Cc1cccc(/C(N)=N/OC(=O)Cc2ccccc2)c1		inconclusive [activator, single point]
CCOc1ccc(OCC)c(NS(=O)(=O)c2ccc(-c3coc(C)n3)cc2)c1		inconclusive [activator, single point]
COc1ccc(NC(=O)c2c(NC(=O)c3ccc(Br)cc3)sc3c2CCCC3)cc1		inconclusive [activator, single point]
Cc1ccc(CSc2nnc(-c3cccs3)n2C)cc1		inconclusive [activator, single point]
CC(=O)N1CCN(c2cccc(C)c2C)CC1		inconclusive [activator, single point]
O=C(c1ccc(N2C(=O)c3ccccc3C2=O)cc1)N1CCCCC1	inactive: 10.5%	
O=C(C1CCN(S(=O)(=O)c2ccccc2F)CC1)N1CCc2ccccc21		active: 12.6 µM
Cc1cc(C(=O)CSc2n[nH]c(-c3ccccc3F)n2)c(C)n1Cc1cccs1		inconclusive [activator, single point]
Cc1ccc(CC(=O)Nc2cc(C)on2)cc1		inconclusive [activator, partial curve]
CCOC(=O)c1cc(S(=O)(=O)N2CCN(c3ccccc3F)CC2)[nH]n1		inconclusive [activator, single point]
CC1(C)C(=O)N(CC(=O)Nc2ccc(Br)cc2F)c2ccccc21		inconclusive [activator, single point]
Fc1ccc(/C=N/NC2=Nc3cccc4cccc2c34)cc1		inconclusive [activator, full curve, poor fit]
COc1ccc2nc(N(Cc3cccnc3)C(=O)C3CCCCC3)sc2c1		active: 6.31 µM
Cc1nc(SCC(=O)Nc2ccnc3ccccc23)n[nH]1		inconclusive [activator, partial curve, poor fit]
O=C(CCSc1ccccc1Cl)Nc1cccc([N+](=O)[O-])c1		active: 17.8 µM
COc1cccc(NC(=O)c2c(C)nn(-c3ccccc3)c2Cl)c1		inconclusive [activator, single point]
COC(=O)C1=NN(c2ccccc2)C2(S1)SC(C(C)=O)=C(C)N2c1ccccc1 (stereo unspecified)	inactive: -0.902%	
CC(C)COc1ccc(C(=O)NCc2ccco2)cc1		inconclusive [activator, partial curve]
CC(C)CCNC(=O)c1cnc2sc(N3CCCCC3)nn2c1=O		inconclusive [activator, single point]
CN(CC(=O)Nc1ccccc1Br)C(=O)c1cccnc1Nc1cccc(C(F)(F)F)c1		inconclusive [activator, single point]
Cc1ccc(C(=O)OCc2nnc(-c3ccccc3)o2)cc1S(=O)(=O)N1CCOCC1		inconclusive [activator, single point]
Cc1c(NC(=O)Nc2ccccc2C(F)(F)F)sc2nc3n(c(=O)c12)CCC(C)CC3 (stereo unspecified)		inconclusive [activator, partial curve]
O=[N+]([O-])c1ccc(-c2ccc(/C=N/Nc3nc(N4CCCCC4)nc(N4CCCCC4)n3)o2)cc1		active: 14.1 µM

Compound	growth rescue (activation)	Potency
CC1(C)Cc2c(c(N3CCOCC3)nc3sc4c(NCC5CCCO5)nnnc4c23)CS1 (stereo unspecified)		inconclusive [activator, single point]
Cc1ccc(NC(=O)CO/N=C/c2ccccc2C)c(C)c1		inconclusive [activator, partial curve]
COc1cc2cc(C(C)(C)O)oc(=O)c2cc1OC		inconclusive [activator, partial curve]
O=C1NC(=O)C(Cc2cccc(Oc3ccccc3)c2)S1 (stereo unspecified)		inconclusive [activator, single point]
Cc1cccc(N2CCN(C(=O)C3COc4ccccc4O3)CC2)c1C (stereo unspecified)		inconclusive [activator, single point]
OCCCn1c(C2CCCN2c2nc(-c3ccc(Cl)cc3)cs2)nc2cc(Cl)c(Cl)cc21 (stereo unspecified)		inconclusive [activator, single point]
CCOC(=O)c1c[nH]c2c(C)ccc(Cl)c2c1=O		inconclusive [activator, partial curve]
CCCCN1C(C(=O)c2ccccc2)=C(OC(C)=O)c2ccccc2S1(=O)=O	inactive: 3.54%	
Cc1cccc(CC2CC(=O)N(CCc3ccc4c(c3)OCO4)C2=O)c1 (stereo unspecified)		inconclusive [activator, partial curve]
Cc1noc(Cn2c(=O)c3cc4c(cc3n(CC(=O)Nc3ccccc3Br)c2=O)OCO4)n1	inactive: -3.63%	
Cc1ccc2nc(-c3cccc(N)c3)oc2c1	inactive: -11.5%	
CCOc1ccc(C(CN2CCOCC2)C(C)=O)cc1OC (stereo unspecified)		inconclusive [activator, partial curve]
Cc1ccccc1CN1C(=O)c2ccccc2C1c1nnnn1Cc1ccccc1 (stereo unspecified)		inconclusive [activator, partial curve]
O=C(COc1ccc2c3c(c(=O)oc2c1)CCC3)N1CCN(c2ccc(F)cc2)CC1		active: 31.6 µM
O=C1c2ccccc2NC(c2cn[nH]c2-c2ccc(Cl)cc2)N1O (stereo unspecified)	inactive: -4.07%	
CN(C)c1ccc(CNC(=O)C2Cc3c(-c4ccccc4Oc4ccccc4)ccnc3O2)cc1 (stereo unspecified)	inactive: 9.12%	
CCCN(C)C1CN(Cc2cn(Cc3ccc(F)cc3)nn2)S(=O)(=O)C1 (stereo unspecified)	inactive: 0%	
COc1ccccc1NC(=O)CSc1ccc(-c2cccs2)nn1		active: 22.4 µM
S=C1NCCc2ccc(Cl)cc2C1c1ccccc1 (stereo unspecified)		active: 14.1 µM
Cc1cc(C)c2sc(NC(=O)C3=COCCO3)nc2c1		active: 17.8 µM
CCc1cc2c(SC(C)C(=O)NC3CCCC3)ncnc2s1 (stereo unspecified)		active: 35.5 µM
O=C(CSCc1ccc(Cl)cc1)NCc1ccc2c(c1)OCO2		inconclusive [activator, single point]
COc1ccc(C(C(=O)NC2CCCC2)N(C(=O)c2snc(-c3ccc(F)cc3)c2N)c2cccc(F)c2)cc1 (stereo unspecified)		inconclusive [activator, single point]
Cc1cccc(OCCn2c(SCC(=O)O)nc3ccccc32)c1		inconclusive [activator, single point]

Compound	growth rescue (activation)	Potency
O=C(COC(=O)Cc1ccc(Br)cc1)NC1CCCCC1		inconclusive [activator, partial curve]
CCOC(=O)c1ccc(NC(=O)c2nc[nH]c2C(=O)N(C)Cc2ccccc2)cc1		inconclusive [activator, single point]
Fc1ccccc1Cn1nnc2c(NCc3ccccn3)ncnc21		inconclusive [activator, partial curve]
COc1cccc(NC(=O)CN(C)C(=O)c2sc3cc(Cl)ccc3c2Cl)c1	inconclusive: 121% [activator]	
Cc1cc(C(=O)N/N=C/c2ccc(-c3ccc([N+](=O)[O-])cc3Cl)o2)n[nH]1		inconclusive [activator, partial curve]
Cc1ccc(CNC(=O)c2ccc(CSCc3ccccc3C)o2)cc1		inconclusive [activator, full curve, poor fit]
CCOC(=O)c1cc2sccc2n1Cc1ccc(C#N)cc1		inconclusive [activator, single point]
O=C(NC(=S)NC1CCCCC1)c1ccccc1		inconclusive [activator, partial curve]
Fc1ccc(-c2n[nH]c(=S)n2Cc2ccccc2)cc1		inconclusive [activator, single point]
Cc1onc(-c2ccccc2Cl)c1C(=O)Nc1ccc(Cl)cn1		inconclusive [activator, partial curve]
CCc1ccc(OCCNC(=O)OCc2ccccc2)cc1		inconclusive [activator, partial curve]
CCCn1c(NC(=O)c2cccc(C)c2C)nc2ccccc21		active: 20 µM
Cc1ccnc(Nc2nc(-c3ccc(O)cc3)cs2)c1		active: 12.6 µM
S=C1N(c2ccccc2)C(c2ccc(Br)cc2)N2CCCN12 (stereo unspecified)		active: 12.6 µM
COc1ccc(-c2c3c(=O)n(C)c(=O)n(C)c3cn2-c2cc(OC)ccc2OC)cc1	inactive: -29.4%	
FC(F)(F)c1nc(SCc2ccc(Cl)cc2Cl)n[nH]1	inconclusive: -92.9% [activator]	
CCC(C)NC(=O)c1cccc(NC(=O)c2nsc3ccccc23)c1 (stereo unspecified)		inconclusive [activator, single point]
Cc1cc(C)c(C(=O)COC(=O)c2ccc([N+](=O)[O-])o2)cc1C		inconclusive [activator, single point]
CN(C)c1nc(-c2ccccc2)ncc1S(=O)(=O)c1ccccc1		active: 15.8 µM
O=C(COC(=O)c1ccc(Br)o1)NCCc1ccccc1		inconclusive [activator, single point]
S=C(Nc1ccccc1)Nc1cc(Cl)ccc1Oc1ccccc1		inconclusive [activator, single point]
COC(=O)c1sccc1NC(=O)c1c(F)c(F)c(F)c(F)c1F		inconclusive [activator, single point]
COC(=O)N1C(=O)[C@](c2ccccc2)(C2CCCC2)N1C(=O)OC		active: 14.1 µM
